Experimental data taken from the supplement of paper PMC9135407.
Several values for one entry are separate records, joined by “and”; a condition that tells them apart may be missing. Equal values may be shown once. Where a name gives a salt, the structure may show the parent alone. The campaign covered roughly 5,800 compounds. About 620 (11%) showed activity.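 The calls were made as follows: active = score above a cut-off or among the top three wells of a plate; in these data no inactive exceeds 0.85.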 Only a part is listed here, and it is no random draw.

Tested on: primary human hepatic stellate cells (donor 1)
Assay: scaled lipid accumulation score (0 = DMSO-like, 1 = nortriptyline-like); higher = stronger HSC inactivation (lipid re-accumulation), active = hit call of the paper
Conditions: 48 h
[1] = library stock concentration: 10 mM
[2] = library stock concentration: 3.33 mM
[3] = library stock concentration: 100 uM
[4] = library stock concentration: 1 mM

`NC1=NC(=O)C(c2ccccc2)O1` (stereo unspecified) [Pemoline] was tested, and the “scaled lipid accumulation score” value [1] was inactive: ≤ 0.

For `CCOC(=O)C1(c2ccccc2)CCN(CCC(C#N)(c2ccccc2)c2ccccc2)CC1`, the “scaled lipid accumulation score” value [1] was inactive: ≤ 0.

In the case of `C[C@]12CC[C@H](O)C[C@H]1CC[C@@H]1[C@@H]2C[C@@H](O)[C@]2(C)[C@@H](C3=CC(=O)OC3)CC[C@]12O` [Digoxigenin], the “scaled lipid accumulation score” value is reported as active: 0.991.

In the case of `C/C(=C\c1csc(C)n1)[C@@H]1C[C@@H]2O[C@@H]2CCC[C@H](C)[C@H](O)[C@@H](C)C(=O)C(C)(C)[C@@H](O)CC(=O)O1` [Epothilone A], the “scaled lipid accumulation score” value [2] is reported as inactive: ≤ 0 and the “scaled lipid accumulation score” value [1] is reported as inactive: ≤ 0.

`CCCCC/C=C\C/C=C\C/C=C\C=C\[C@H](CCCC(=O)O)OO` was tested, and the “scaled lipid accumulation score” value [3] was inactive: ≤ -0.021.

With `COC1=C[C@@H]2[C@@H]3Cc4ccc(OC)c(O)c4[C@]2(CCN3C)CC1=O` [Sinomenine] the “scaled lipid accumulation score” value [2] was inactive: ≤ 0 and the “scaled lipid accumulation score” value [1] was inactive: ≤ 0.

With `COP(=O)(OC)OC=C(Cl)Cl` [Dichlorvos] the “scaled lipid accumulation score” value (library stock concentration: 9.1 mM) was inactive: 0.057.

In the case of `S=C=NCc1ccccc1` [Benzyl isothiocyanate], the “scaled lipid accumulation score” value [1] is reported as inactive: ≤ 0.

`N#CC(C#N)=Cc1ccc(O)c(O)c1` [Tyrphostin 23] was tested, and the “scaled lipid accumulation score” value [1] was inactive: ≤ 0.

With `Cc1cccc(Cc2c[nH]cn2)c1C` [Detomidine HCl] the “scaled lipid accumulation score” value [2] was inactive: ≤ 0 and the “scaled lipid accumulation score” value [1] was inactive: ≤ 0.

With `CN1CC[C@]2(CCN3CCc4c(oc5ccccc45)[C@@H]3C2)N(C)C1=O` the “scaled lipid accumulation score” value [1] was inactive: ≤ -0.055.

With `OC(Cc1ccncc1)C(Cl)(Cl)Cl` (stereo unspecified) the “scaled lipid accumulation score” value [1] was inactive: ≤ -0.006.

In the case of `CS(=O)(=O)Nc1ccc(Cc2noc(-c3ccc4[nH]cc(CCN)c4c3)n2)cc1`, the “scaled lipid accumulation score” value [1] is reported as inactive: ≤ 0.

In the case of `Cc1cccc(C)c1NC(=O)CN1CCCC1=O` [Nefiracetam], the “scaled lipid accumulation score” value [2] is reported as inactive: ≤ 0 and the “scaled lipid accumulation score” value [1] is reported as inactive: ≤ 0 and inactive: ≤ -0.07.

`C(#CCN1CCCC1)CN1CCCC1` [Tremorine dihydrochloride] was tested, and the “scaled lipid accumulation score” value was inactive: 0.122.

With `CCCCCCCCCCCCCC(=O)O[C@@H]1[C@@H](C)[C@@]2(O)[C@@H](C=C(CO)C[C@]3(O)C(=O)C(C)=C[C@@H]23)[C@@H]2C(C)(C)[C@]12OC(C)=O` [Phorbol 12-myristate 13-acetate] the “scaled lipid accumulation score” value (library stock concentration: 8.1 mM) was active: 0.934.

In the case of `C[C@]12CCC(=O)C=C1C=C[C@@H]1[C@@H]2CC[C@@]2(C)[C@H]1CC[C@@]2(O)CCC(=O)O` [Canrenoic acid, potassium salt], the “scaled lipid accumulation score” value (library stock concentration: 5 mM) is reported as inactive: ≤ 0 and the “scaled lipid accumulation score” value [1] is reported as inactive: ≤ 0.

For `C[C@]12CCC(=O)C=C1C=C[C@@H]1[C@@H]2CC[C@@]2(C)[C@H]1CC[C@@]2(O)CCC(=O)O` [Canrenoic acid potassium salt], the “scaled lipid accumulation score” value was inactive: ≤ 0.

In the case of `NC(=O)CI` [Iodoacetamide], the “scaled lipid accumulation score” value [1] is reported as inactive: 0.037.

`CCCCC[C@@H](/C=C/C=C\C/C=C\C/C=C\CCCC(=O)O)OO` was tested, and the “scaled lipid accumulation score” value [3] was inactive: ≤ -0.01.

For `NC(=O)c1cc(N2CC2)c([N+](=O)[O-])cc1[N+](=O)[O-]`, the “scaled lipid accumulation score” value [1] was inactive: ≤ 0.

In the case of `Cn1cc(C2=C(c3cn(C4CCN(Cc5ccccn5)CC4)c4ccccc34)C(=O)NC2=O)c2ccccc21`, the “scaled lipid accumulation score” value (library stock concentration: 80 uM) is reported as inactive: ≤ 0, the “scaled lipid accumulation score” value (library stock concentration: 400 uM) is reported as inactive: ≤ 0 and the “scaled lipid accumulation score” value (library stock concentration: 2 mM) is reported as inactive: ≤ 0. For the same molecule, the “scaled lipid accumulation score” value [2] was inactive: ≤ 0 and the “scaled lipid accumulation score” value [1] was inactive: 0.048 and inactive: ≤ 0.

`CP(=O)(O)C1=CCNCC1` was tested, and the “scaled lipid accumulation score” value [1] was inactive: ≤ 0.

With `C[C@@H]1O[C@H](C[N+](C)(C)C)C[C@H]1O` [(?)-Muscarine chloride] the “scaled lipid accumulation score” value [1] was inactive: 0.141.

With `O=c1n(Cl)c(=O)n(Cl)c(=O)n1Cl` the “scaled lipid accumulation score” value [1] was inactive: ≤ 0.

`C=CCN1CC[C@]23c4c5ccc(O)c4O[C@H]2C(=O)CC[C@@]3(O)[C@H]1C5` [Naloxone hydrochloride] was tested, and the “scaled lipid accumulation score” value was inactive: 0.021 and the “scaled lipid accumulation score” value [1] was inactive: ≤ 0 and inactive: ≤ -0.052.

For `C=CCN1CC[C@]23c4c5ccc(O)c4O[C@H]2C(=O)CC[C@@]3(O)[C@H]1C5`, the “scaled lipid accumulation score” value [1] was inactive: ≤ 0.

In the case of `C=CCN1CC[C@]23c4c5ccc(O)c4O[C@H]2C(=O)CC[C@@]3(O)[C@H]1C5` [Naloxone HCl], the “scaled lipid accumulation score” value (library stock concentration: 6.1 mM) is reported as inactive: ≤ 0.

With `C[C@@H]1CC[C@@]2(OC1)O[C@H]1C[C@H]3[C@@H]4CC=C5C[C@@H](O[C@@H]6O[C@H](CO)[C@@H](O[C@@H]7O[C@@H](C)[C@H](O)[C@@H](O)[C@H]7O)[C@H](O)[C@H]6O[C@@H]6O[C@@H](C)[C@H](O)[C@@H](O)[C@H]6O)CC[C@]5(C)[C@H]4CC[C@]3(C)[C@H]1[C@@H]2C` [Dioscin] the “scaled lipid accumulation score” value [2] was inactive: 0.577 and the “scaled lipid accumulation score” value [1] was inactive: 0.255.

With `CCCCCCCC/C=C\CCCCCCCC(=O)Nc1ccccc1` [Oleyl Anilide] the “scaled lipid accumulation score” value [4] was inactive: 0.024.

In the case of `c1ccc(Cn2ccnc2)cc1`, the “scaled lipid accumulation score” value [1] is reported as inactive: ≤ 0.

`C=CCc1ccc2c(c1)OCO2` [Safrole] was tested, and the “scaled lipid accumulation score” value [1] was inactive: 0.109.

`CCCC(C)C1(CC)C(=O)NC(=O)NC1=O` (stereo unspecified) [Pentobarbital] was tested, and the “scaled lipid accumulation score” value (library stock concentration: 8.8 mM) was inactive: ≤ 0.

With `C[C@]12C[C@H]3S[C@H]3C[C@@H]1CC[C@@H]1[C@@H]2CC[C@]2(C)[C@@H](O)CC[C@@H]12` [Epitiostanol] the “scaled lipid accumulation score” value was inactive: ≤ 0.

In the case of `COP(=O)(OC)C(O)C(Cl)(Cl)Cl` (stereo unspecified) [Trichlorfon], the “scaled lipid accumulation score” value is reported as inactive: ≤ 0.

`CC(N)Cc1c[nH]c2ccc(OCc3cccs3)cc12.Cl` (stereo unspecified) was tested, and the “scaled lipid accumulation score” value [1] was active: 1.18.

`CCCCC/C=C\C/C=C\C/C=C\C/C=C\CCCC(=O)Nc1cccc([N+](=O)[O-])c1` [Arachidonoyl m-Nitroaniline] was tested, and the “scaled lipid accumulation score” value [4] was inactive: ≤ 0.

For `O=C1C=CC[C@@H]2[C@H]3CCCN4CCC[C@@H](CN12)[C@@H]34` [Sophocarpine], the “scaled lipid accumulation score” value [2] was inactive: ≤ 0 and the “scaled lipid accumulation score” value [1] was inactive: ≤ 0.

`C[C@]12CCC(=O)C[C@@H]1CC[C@@H]1[C@@H]2CC[C@]2(C)C(=O)CC[C@@H]12` [5alpha-androstan-3,17-dione] was tested, and the “scaled lipid accumulation score” value [1] was inactive: ≤ -0.027.

For `CC(=O)O[C@H]1C[C@@H]2CC[C@@H]3[C@H](CC[C@@]4(C)[C@H]3C[C@H]([N+]3(C)CCCCC3)[C@@H]4OC(C)=O)[C@@]2(C)C[C@@H]1[N+]1(C)CCCCC1` [Pancuronium bromide], the “scaled lipid accumulation score” value was inactive: ≤ 0 and the “scaled lipid accumulation score” value [1] was inactive: 0.086.

With `CC(=O)O[C@H]1C[C@@H]2CC[C@@H]3[C@H](CC[C@@]4(C)[C@H]3C[C@H]([N+]3(C)CCCCC3)[C@@H]4OC(C)=O)[C@@]2(C)C[C@@H]1[N+]1(C)CCCCC1` [Pancuronium] the “scaled lipid accumulation score” value [1] was inactive: ≤ 0.

With `CC(=O)O[C@H]1C[C@@H]2CC[C@@H]3[C@H](CC[C@@]4(C)[C@H]3C[C@H]([N+]3(C)CCCCC3)[C@@H]4OC(C)=O)[C@@]2(C)C[C@@H]1[N+]1(C)CCCCC1` [Pancuronium dibromide] the “scaled lipid accumulation score” value [2] was inactive: ≤ 0 and the “scaled lipid accumulation score” value [1] was inactive: ≤ 0.
